{"source": "PubChem BioAssay AID1346428", "about": "(National Center for Advancing Translational Sciences (NCATS), 2018)", "note": "Where “and” joins values, the source holds several entries; their conditions need not be identical. Identical values can stand only once. The campaign covered roughly 48,000 compounds. About 1,200 (2.5%) were called active. Not shown: some 2% with an inconclusive outcome.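 How the source made its calls: active means activation of at least 60% and not above a set upper limit (about 1 call in 100 departs from these limits); inconclusive means activation of 40% to 60%, or above that upper limit; inactive means activation under 40%.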 The list shows a part of the results.", "data": [{"molecular_target": "Probable G-protein coupled receptor 32 (Homo sapiens) (UniProt O75388)", "sequence (O75388 whole entry, looked up)": "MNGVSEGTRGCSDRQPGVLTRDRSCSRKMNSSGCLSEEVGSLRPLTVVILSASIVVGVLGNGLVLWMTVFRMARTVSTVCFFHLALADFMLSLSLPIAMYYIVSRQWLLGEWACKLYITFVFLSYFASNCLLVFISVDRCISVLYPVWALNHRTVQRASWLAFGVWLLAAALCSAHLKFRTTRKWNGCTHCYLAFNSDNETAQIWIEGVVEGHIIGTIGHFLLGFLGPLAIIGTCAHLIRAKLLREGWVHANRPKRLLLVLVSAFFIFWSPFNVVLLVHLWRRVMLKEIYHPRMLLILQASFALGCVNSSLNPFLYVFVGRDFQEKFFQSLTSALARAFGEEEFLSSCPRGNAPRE", "assay": "qHTS for Agonists of Human Resolvin D1 Receptor DRV1; further: 0% is about no effect", "conditions": "CHO-K1 GPR32 beta-arrestin PathHunter luminescence, 90 min; at 76.9 µM; stronger effect = higher value; zero percent set by DMSO-only wells", "how_it_was_run": "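CHO-K1 cells stably expressing ProLink-tagged GPR32 and Enzyme Activator-tagged beta-arrestin were seeded at 2,500 cells/well overnight, exposed to compounds for 90 min at 37 °C, then read by beta-Gal complementation chemiluminescence after 1 h detection reagent.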", "values": [{"smiles": "CCN(CC)S(=O)(=O)c1ccc2c(c1)c(=O)c(C(=O)NCc1ccccc1OC)cn2C", "activation": "inactive: -3.38%"}, {"smiles": "CCOc1ccccc1C(=O)Nc1nnc(COC)s1", "activation": "inactive: -13.8%"}, {"smiles": "O=C(NCc1ccc2c(c1)CCN2C(=O)c1ccccc1)c1ccc(Br)o1", "activation": "inactive: 1.64%"}, {"smiles": "Cc1ccc(NS(=O)(=O)c2ccc3c(c2)NC(=O)CCS3)cc1F", "activation": "inactive: 19.8%"}, {"smiles": "Cn1c(=O)c2c(ncn2C)n(C)c1=O", "activation": "inactive: -10.7% and inactive: 10.4%"}, {"smiles": "Cc1cn(C)c(CC(=O)N2CCN(c3ccc(F)cc3)CC2)c1C(=O)O", "activation": "inactive: -5.89%"}, {"smiles": "COC(=O)c1ccccc1NC(=O)Cn1nc(C(F)(F)F)c2c1CCCC2", "activation": "inactive: -28.9%"}, {"smiles": "CCN(C(=O)Cn1cc(C(=O)c2ccc(F)cc2)c(=O)c2ccc(C)nc21)c1cccc(C)c1", "activation": "inactive: -17.8%"}, {"smiles": "CC1CCCCN1c1nc(-c2ccc(C(C)(C)C)cc2)nc2ccccc12", "note": "(stereo not drawn)", "activation": "inactive: -22.6%"}, {"smiles": "COc1cc(NC(=O)Cn2c(=O)nc(-c3ccccc3F)c3cc(Cl)ccc32)cc(OC)c1", "activation": "inactive: 0.293%"}, {"smiles": "Cc1ccc(C)c(N2CCN(C(=O)Cn3c(C)c4cnn(-c5ccccc5)c(=O)c4c3C)CC2)c1", "activation": "inactive: 1.75%"}, {"smiles": "CCOC(=O)c1cc(OC(=O)c2cccc(Cl)c2)n(-c2ccccc2)n1", "activation": "inactive: 8.5%"}, {"smiles": "CCOc1ccc(C(=O)N2CCC(c3ccncc3)CC2)cc1", "activation": "inactive: 16.5%"}, {"smiles": "COc1cccc(-n2c(-c3ccc(C)cc3)cc3c2CC(C)(C)CC3=O)c1", "activation": "inactive: -24.8%"}, {"smiles": "CCCCOc1ccc(CNC(=O)c2cnc3sc(N4CCC(C)CC4)nn3c2=O)cc1", "activation": "inactive: -9.64%"}, {"smiles": "CC(C)c1nc2ccc(C(=O)NCCCN3CCN(c4ccc(F)cc4)CC3)cc2o1", "activation": "inactive: -15.1%"}, {"smiles": "CCC1CN(C(=O)N2CCC(C(=O)NCc3ccco3)CC2)c2cc(C)ccc2O1", "note": "(stereo not drawn)", "activation": "inactive: -6.21%"}, {"smiles": "COc1ccc(OC)c(NC(=O)CCc2c(C)nc3c(c(C)nn3C(C)(C)C)c2C)c1", "activation": "inactive: -3.67%"}, {"smiles": "CC(C)c1ccc2occ(CC(=O)Nc3cccc(C(F)(F)F)c3)c2c1", "activation": "inactive: 35.4%"}, {"smiles": "Cc1ccc2c(c1)CC(C)N2S(=O)(=O)c1nnc(NC(=O)CC(C)C)s1", "note": "(stereo not drawn)", "activation": "inactive: -21.6%"}, {"smiles": "Cc1cc(C)c2c(CC(=O)Nc3c(C(=O)c4ccc(F)cc4)oc4ccccc34)coc2c1", "activation": "inactive: 3.17%"}, {"smiles": "CC(CNC(=O)Cn1c(-c2cccs2)cc2cc(Cl)ccc21)c1ccccc1", "note": "(stereo not drawn)", "activation": "inactive: -8.38%"}, {"smiles": "COc1cc(Cl)c(C)cc1NC(=O)CCn1cnc2onc(-c3ccc(F)cc3)c2c1=O", "activation": "inactive: 0.909%"}, {"smiles": "COCC(C)NS(=O)(=O)c1ccc(N2CCCCS2(=O)=O)cc1", "note": "(stereo not drawn)", "activation": "inactive: 4%"}, {"smiles": "CCN1C(C(=O)c2ccccc2)=C(NC(=O)c2ccc(Cl)cc2)c2ccccc2S1(=O)=O", "activation": "inactive: -11.6%"}, {"smiles": "CCOC(=O)c1ccc(NC(=O)c2sc3nc4n(c(=O)c3c2C)CCC4)cc1", "activation": "inactive: -4.28%"}, {"smiles": "CCOc1ccc(NC(=O)Cn2c(=O)n(CC(=O)NCCc3ccccc3)c(=O)c3sccc32)cc1", "activation": "inactive: -9.87%"}, {"smiles": "Cc1ccc(C)c(S(=O)(=O)c2cn(Cc3ccccc3)c3cc(N4CCCC4)c(F)cc3c2=O)c1", "activation": "inactive: -17.9%"}, {"smiles": "Cc1ccc2c(CC(=O)Nc3c(C(=O)c4ccc(F)cc4)oc4ccccc34)coc2c1C", "activation": "inactive: -18.3%"}, {"smiles": "CC(C)c1ccc(NC(=O)C(Cc2ccccc2)n2cccc2)cc1", "note": "(stereo not drawn)", "activation": "inactive: -11.3%"}, {"smiles": "COc1cccc(C(=O)NCCc2sc(-c3cccc(C)c3)nc2C)c1", "activation": "inactive: 19.6%"}, {"smiles": "Cc1cccc(C)c1NC(=O)c1cc(S(=O)(=O)N2CCCc3ccccc32)ccc1F", "activation": "inactive: -12.1%"}, {"smiles": "CC(=O)N1CCCc2cc(S(=O)(=O)Nc3ccc(OC(F)(F)F)cc3)ccc21", "activation": "inactive: -14.5%"}, {"smiles": "Cc1ccc(-n2ccn(CC(=O)c3ccc(F)cc3)c(=O)c2=O)cc1C", "activation": "inactive: -12.5%"}, {"smiles": "Cc1ccc(-n2[nH]c(C)c(N=Nc3cccc(-c4cccc(C(=O)O)c4)c3O)c2=O)cc1C", "activation": "inactive: 29.6%"}, {"smiles": "COc1cccc(NC(=O)c2oc3ccccc3c2NC(=O)c2ccc(OC(C)C)cc2)c1", "activation": "inactive: -26.3%"}, {"smiles": "CC(=O)Nc1nonc1-c1nnc(SCC(=O)Nc2c(C)cccc2C)n1-c1ccccc1", "activation": "inactive: -9.77%"}, {"smiles": "CCn1cc(C(=O)NCc2ccc(Cl)cc2)c(=O)c2cc(S(=O)(=O)N3CCc4ccccc4C3)ccc21", "activation": "inactive: 32.6%"}, {"smiles": "CCOC(=O)c1ccc(N2C(=O)c3[nH]nc(-c4ccccc4)c3C2c2ccc(C(C)C)cc2)cc1", "note": "(stereo not drawn)", "activation": "inactive: -14.6%"}, {"smiles": "COc1ccc2c(CNCCc3ccco3)c(C(=O)O)n(Cc3ccc(F)cc3)c2c1", "activation": "inactive: 33.4%"}, {"smiles": "Cc1ccc2c(c1)c1c(c(=O)n(-c3ccccc3C)c(=O)n1Cc1cccc(F)c1)n2C", "activation": "inactive: -5.65%"}, {"smiles": "Cc1ccc(Cl)cc1NC(=O)C(NS(=O)(=O)c1ccc2c(c1)CCC(=O)N2)c1ccccc1", "note": "(stereo not drawn)", "activation": "inactive: -6.74%"}, {"smiles": "CC(C)(C)C(=O)Nc1ccc2nc(SCc3ccccc3)sc2c1", "activation": "active: 120%"}, {"smiles": "CC1=C(c2ccc(F)cc2)S(=O)(=O)NC1=NCc1ccccc1Cl", "activation": "inactive: -9.46%"}, {"smiles": "Cc1cccc(NC(=O)CC2C(=O)OCCN2Cc2ccccc2)c1", "note": "(stereo not drawn)", "activation": "inactive: 19.3%"}, {"smiles": "CCc1ccc(NCc2cc3cc(OC)c(OC)cc3n(CC(=O)Nc3ccc(F)cc3)c2=O)cc1", "activation": "inactive: -50.7%"}, {"smiles": "CCC(=O)N1CCc2cc(S(=O)(=O)NC(Cc3ccccc3)C(=O)NCc3cccc(OC)c3)ccc21", "note": "(stereo not drawn)", "activation": "inactive: -0.715%"}, {"smiles": "COc1ccc(-c2cn3nc(N4CCCC(C(=O)NCCCOC(C)C)C4)sc3n2)cc1", "note": "(stereo not drawn)", "activation": "inactive: -13.2%"}, {"smiles": "COc1ccc2cc(CNc3ccccc3)c(=O)n(CC(=O)Nc3ccc(C(C)=O)cc3)c2c1", "activation": "inactive: -16.8%"}, {"smiles": "Cc1ccccc1C(=O)NC(=O)Nc1ccc(-n2nc(C(F)(F)F)cc2C(F)(F)F)cc1", "activation": "inactive: 17.9%"}, {"smiles": "COc1cccc(CNC(=O)CCn2c(=O)c3cccn3c3cccnc32)c1", "activation": "inactive: -9.75%"}, {"smiles": "CCCN(CCC)c1cc(C)nc2nc(-c3ccc(Cl)cc3)nn12", "activation": "inactive: -17.7%"}, {"smiles": "Cc1ccc(C(=O)CSc2nc(-c3ccccc3)nc3c2CCCC3)cc1C", "activation": "inactive: -5.01%"}, {"smiles": "Cc1cc(Oc2nc3ccccn3c(=O)c2/C=C(\\C#N)c2nc3ccccc3s2)ccc1Cl", "activation": "inactive: 8%"}, {"smiles": "COc1ccc(-c2csc3ncnc(Nc4cccc(F)c4)c23)cc1", "activation": "inactive: -4%"}, {"smiles": "CC(=O)c1ccc(NC(=O)CC2Sc3ccccc3NC2=O)cc1", "note": "(stereo not drawn)", "activation": "inactive: 30.5%"}, {"smiles": "CC1=C(C(=O)Nc2ccc(C)cc2C)C(c2cccs2)n2nc(SCc3ccc(Cl)cc3)nc2N1", "note": "(stereo not drawn)", "activation": "inactive: -5.18%"}, {"smiles": "Cc1ccc(Nc2nc(C(N)=O)c(NC(=O)c3ccccc3Br)s2)cc1", "activation": "active: 60.9%"}, {"smiles": "Cc1ccc(NC(=O)C2CCN(C(=O)c3cnn(-c4ccccc4)c3-n3cccc3)CC2)cc1Cl", "activation": "inactive: -15.4%"}, {"smiles": "Cc1nc2nc(NC(=O)C(C)C)[nH]n2c(=O)c1Cc1ccccc1", "activation": "inactive: 14.3%"}, {"smiles": "Cc1ccc(CSc2nc3cccnc3n2Cc2ccc(C(=O)NCc3cccs3)cc2)cc1", "activation": "inactive: 1.42%"}, {"smiles": "CCOCCCNC(=O)CN1C(=O)COc2ccc(S(=O)(=O)N3CCOCC3)cc21", "activation": "inactive: -1.67%"}, {"smiles": "COc1ccc(-c2cc(C(F)(F)F)nc(SCCC(=O)Nc3ccc(F)cc3F)n2)cc1", "activation": "inactive: -0.954%"}, {"smiles": "CC(=O)O[C@H]1Cc2ccccc2N(C(N)=O)c2ccccc21", "activation": "inactive: -8.76%"}, {"smiles": "CC(=O)c1ccc(NC(=O)CSc2nnc3c(n2)[nH]c2ccccc23)cc1", "activation": "inactive: 1.21%"}, {"smiles": "COc1ccc(CNC(=O)c2cc(-c3ccc(OC)c(OC)c3)nc3n[nH]c(-c4ccc(C)cc4)c23)cc1", "activation": "inactive: -16.2%"}, {"smiles": "O=C(Nc1ccc(F)cc1F)c1ccc(-n2cnc3cccnc32)cc1", "activation": "inactive: 1.56%"}, {"smiles": "O=C(CSc1ccc2nc(-c3ccccc3)cn2n1)Nc1ccccc1", "activation": "inactive: -0.757%"}, {"smiles": "COc1ccc(N(C)C(=O)c2oc(=O)c3ccccc3c2-c2ccc(C)cc2)c(OC)c1", "activation": "inactive: -12.8%"}, {"smiles": "N#Cc1c(-n2ncnc2-c2ccccc2Cl)sc2c1CCCCC2", "activation": "inactive: 4.7%"}, {"smiles": "CCOC(=O)c1ccc(O)cc1", "activation": "inactive: -1.26%"}, {"smiles": "COc1ccc(N2CCN(C(=O)CCCCn3c(=O)[nH]c4ccsc4c3=O)CC2)cc1", "activation": "inactive: 49.3%"}, {"smiles": "CCOC(=O)c1ccc(N2C(=O)c3n[nH]c(-c4cccs4)c3C2c2cccc(O)c2)cc1", "note": "(stereo not drawn)", "activation": "inactive: 24%"}, {"smiles": "Clc1ccc(-c2nc3ncccn3c2Nc2ccc3c(c2)OCCO3)cc1", "activation": "inactive: 7.1%"}, {"smiles": "O=C(CCC1N=C2c3ccccc3N=C(SCc3ccc(F)cc3)N2C1=O)N1CCN(c2ccccc2)CC1", "note": "(stereo not drawn)", "activation": "inactive: -21.9%"}, {"smiles": "CCOC(=O)C1CCN(C(c2ccc(C)cc2)c2sc3nc(-c4ccco4)nn3c2O)CC1", "note": "(stereo not drawn)", "activation": "inactive: 4.99%"}, {"smiles": "CCOc1ccc(/C=C(\\C#N)C(=O)Nc2sc3c(c2C(=O)OC)CCC3)cc1OC", "activation": "inactive: 3.47%"}, {"smiles": "Cc1ccc(CNC(=O)CCc2c(C)c3cc4c(C)coc4cc3oc2=O)cc1", "activation": "inactive: 9.55%"}, {"smiles": "COC(=O)c1c(SCC(=O)Nc2ccccc2C(F)(F)F)[nH]c2ccc(Cl)cc2c1=O", "activation": "inactive: 33.1%"}, {"smiles": "CC(C)c1ccc(CNC(=O)c2ccc(N3CCCC3)c(NC(=O)NCc3ccc(F)cc3)c2)cc1", "activation": "inactive: -20.2%"}, {"smiles": "CC1=C(C(=O)Nc2cccc(F)c2)C2(CCCCC2)OC1=O", "activation": "inactive: -14%"}, {"smiles": "Cc1cccc(Nc2cc(C)nc3nc(-c4ccccc4)nn23)c1", "activation": "inactive: 17.2%"}, {"smiles": "COc1ccc2nc(N3CCN(C(=O)CS(=O)(=O)c4ccc(C)cc4)CC3)sc2c1", "activation": "inactive: 36%"}]}]}
